From paper PMC3482588
Results are given in words; binding and its absence hold for the method and conditions named. In cells and extracts the contact can be indirect. Some binding calls cover weakened binding; strength is not graded here.

Protein sequences, listed by entry. Tags and fused reporters are not part of them. Lines headed by an entry give the natural chain unless they say otherwise; changes in a name come on top. Chains listed by the source or under a name are the forms on record and can include a tag or linker.
UniProt Q04206: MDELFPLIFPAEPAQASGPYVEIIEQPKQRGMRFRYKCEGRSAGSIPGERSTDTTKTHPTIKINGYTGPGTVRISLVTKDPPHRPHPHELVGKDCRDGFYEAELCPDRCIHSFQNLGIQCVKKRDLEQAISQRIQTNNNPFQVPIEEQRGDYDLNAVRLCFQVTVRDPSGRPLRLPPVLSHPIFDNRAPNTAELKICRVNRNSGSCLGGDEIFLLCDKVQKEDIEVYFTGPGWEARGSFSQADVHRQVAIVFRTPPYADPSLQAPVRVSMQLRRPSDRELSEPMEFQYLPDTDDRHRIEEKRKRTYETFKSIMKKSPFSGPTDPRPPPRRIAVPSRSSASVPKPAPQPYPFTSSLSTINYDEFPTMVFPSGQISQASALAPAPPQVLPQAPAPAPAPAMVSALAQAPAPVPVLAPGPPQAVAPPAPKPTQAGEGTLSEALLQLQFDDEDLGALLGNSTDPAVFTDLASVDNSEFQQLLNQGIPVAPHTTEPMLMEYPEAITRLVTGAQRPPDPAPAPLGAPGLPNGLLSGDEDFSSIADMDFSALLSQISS
UniProt Q15672: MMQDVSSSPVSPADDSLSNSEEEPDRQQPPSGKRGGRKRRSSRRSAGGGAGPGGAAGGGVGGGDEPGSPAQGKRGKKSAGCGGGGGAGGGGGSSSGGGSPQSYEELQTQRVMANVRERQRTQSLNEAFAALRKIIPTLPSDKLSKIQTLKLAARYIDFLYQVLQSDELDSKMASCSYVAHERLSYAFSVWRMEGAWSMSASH
TWIST1 S144R K145E ΔWR mutant (Q15672, form named): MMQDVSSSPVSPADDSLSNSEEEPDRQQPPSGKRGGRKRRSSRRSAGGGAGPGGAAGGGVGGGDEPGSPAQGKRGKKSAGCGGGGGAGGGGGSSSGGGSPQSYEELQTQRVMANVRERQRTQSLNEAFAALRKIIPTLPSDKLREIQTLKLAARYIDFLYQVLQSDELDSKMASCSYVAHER

Tests used:
[1] = biological target: NF-κB subunit RELA (transfected) (UniProt Q04206); test: co-IP; α-RELA antibodies or IgG control with protein A/G agarose; lysates (100 μg, RIPA buffer) of HEK293 cells 24 h after transfection with RELA and WT or mutant TWIST1; overnight at 4°C, five washes in RIPA; blot for TWIST1
[2] = biological target: TWIST1, endogenous in BT549 cells (human (endogenous in BT549)) (UniProt Q15672); test: co-IP; fractionation-coupled co-IP, cytoplasmic fraction of BT549 cells (10 mM KCl hypotonic buffer, 0.4% IGEPAL); α-TWIST1 antibodies or IgG control; blot for RELA
[3] = biological target: TWIST1, endogenous in BT549 cells (human (endogenous in BT549)) (UniProt Q15672); test: co-IP; fractionation-coupled co-IP, nuclear fraction of BT549 cells (extracted with 0.4 M NaCl, adjusted to 135 mM); α-TWIST1 antibodies or IgG control; blot for RELA

**Q.** “TWIST1 S144R K145E mutant (from UniProt Q15672 1-202)” was tested. Which binding [1] did it give?
**A.** binds

**Q.** How did the binding [1] turn out when “TWIST1 wild type (full length) (from UniProt Q15672 1-202)” was run?
**A.** binds

**Q.** For “RELA, endogenous in BT549 cells (from UniProt Q04206 1-551)”, which binding [2] is on record?
**A.** no binding (condition: in the cytosolic fraction)

**Q.** What about the binding [3] of the same substance?
**A.** binds

**Q.** Which binding [1] does the source give for “TWIST1 S144R K145E ΔWR mutant (from UniProt Q15672 1-182) (domain or fragment)” here?
**A.** no binding

**Q.** How did the binding [1] turn out when “TWIST1 ΔWR truncation mutant (from UniProt Q15672 1-182) (domain or fragment)” was run?
**A.** no binding
